In PubChem BioAssay AID504339 (National Center for Advancing Translational Sciences (NCATS), 2011):
Where “and” joins values, the source holds several entries; their conditions need not be identical. Equal values may be shown once. In all, about 390,000 compounds went through this assay and about 17,000 (4.4%) were called active. The shares of active, inactive and inconclusive entries below differ from those in the screen. The call rests on the fitted dose curve; in most records, active means well fitted inhibition curve with a large enough effect; inconclusive means small, poorly fitted or top-dose-only effect; inactive means no such curve, though single readings can be large or run the other way. Potencies of inconclusive entries are doubtful fits and often do not repeat.

These compounds were tested against Lysine-specific demethylase 4A (Homo sapiens) (UniProt O75164) (assay: qHTS Assay for Inhibitors of JMJD2A-Tudor Domain). Conditions: AlphaScreen JMJD2A-Tudor / H3K4me3 peptide binding; series mostly up to 114 µM.
Sequence of UniProt O75164 (O75164 whole entry, looked up, the tested form may be a part): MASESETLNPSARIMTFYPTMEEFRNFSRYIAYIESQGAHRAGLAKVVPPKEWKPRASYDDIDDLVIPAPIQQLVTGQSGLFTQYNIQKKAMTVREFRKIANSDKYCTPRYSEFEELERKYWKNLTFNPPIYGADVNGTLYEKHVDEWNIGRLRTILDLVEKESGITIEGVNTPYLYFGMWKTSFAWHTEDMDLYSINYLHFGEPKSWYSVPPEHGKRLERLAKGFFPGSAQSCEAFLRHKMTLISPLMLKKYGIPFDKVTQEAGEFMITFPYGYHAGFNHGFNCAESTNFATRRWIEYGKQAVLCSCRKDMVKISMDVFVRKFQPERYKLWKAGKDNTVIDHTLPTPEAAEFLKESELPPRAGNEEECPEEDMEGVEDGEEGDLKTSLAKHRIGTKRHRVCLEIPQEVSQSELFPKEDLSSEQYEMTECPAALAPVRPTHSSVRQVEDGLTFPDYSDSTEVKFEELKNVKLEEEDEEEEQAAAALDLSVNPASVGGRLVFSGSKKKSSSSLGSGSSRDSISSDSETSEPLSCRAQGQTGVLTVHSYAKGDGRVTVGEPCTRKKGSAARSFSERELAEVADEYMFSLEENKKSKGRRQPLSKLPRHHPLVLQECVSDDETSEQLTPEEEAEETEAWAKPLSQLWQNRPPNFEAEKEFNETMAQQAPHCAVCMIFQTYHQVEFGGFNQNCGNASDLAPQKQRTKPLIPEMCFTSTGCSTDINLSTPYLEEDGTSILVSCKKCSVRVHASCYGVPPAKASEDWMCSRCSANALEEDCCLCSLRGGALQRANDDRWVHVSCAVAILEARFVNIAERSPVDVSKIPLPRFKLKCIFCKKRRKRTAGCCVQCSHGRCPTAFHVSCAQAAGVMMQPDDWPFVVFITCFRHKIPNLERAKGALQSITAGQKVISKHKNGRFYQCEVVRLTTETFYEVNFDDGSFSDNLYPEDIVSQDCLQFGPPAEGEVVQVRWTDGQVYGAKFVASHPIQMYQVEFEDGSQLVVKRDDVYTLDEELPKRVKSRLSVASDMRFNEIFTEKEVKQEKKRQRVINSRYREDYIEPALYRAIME
Further: nearly all actives have a fitted effect of over 50% in size.
Potency means the concentration at half of the fitted maximal effect; tags describe the fitted curve by direction and shape.

Compound | Potency
Cc1nn(-c2nccs2)c2c1C(=O)CC(C)(C)C2Br (stereo not given) | inactive
C=CCn1c(SCC(=O)Nc2ccc(C(=O)OCC)cc2)nnc1-c1cccs1 | inactive
CCCNC(=S)N1CCN(Cc2ccc3c(c2)OCO3)CC1 | active: 28.2 µM
COc1cc(OC)c2c(-c3ccccc3)cc(=O)oc2c1C(CCN1CCCC1)c1ccc2c(c1)OCO2 (stereo not given) | inconclusive: 39.8 µM [inhibitor, partial curve] and inconclusive: 50.1 µM [inhibitor, partial curve]
CCC(=O)Nc1cc(-c2cn3cccnc3n2)ccc1OC | inconclusive: 44.7 µM [inhibitor, partial curve]
O=C(NCCc1ccccc1)c1cccc(N2CCCC2=O)c1 | inactive
COc1ccc(OC)c(C2=NOC(C(=O)NCc3ccccn3)C2)c1 (stereo not given) | inconclusive: 89.1 µM [inhibitor, single point]
Cc1ccc(S(=O)(=O)N2CCOCC2)cc1C(=O)Nc1ccc(N2CCCCCC2)cc1 | active: 22.4 µM
COc1ccccc1C(=O)NCC(c1ccc(N(C)C)cc1)N1CCc2ccccc21 (stereo not given) | active: 11.2 µM
Cc1noc(/C=C/NCc2cccnc2)c1S(=O)(=O)N(C)CC(=O)N1CCc2ccccc21 | inconclusive: 63.1 µM [inhibitor, partial curve, poor fit]
S=C(Nc1ccc(Br)cc1)N1CCn2cccc2C1c1cccnc1 (stereo not given) | inconclusive: 56.2 µM [inhibitor, partial curve]
FC(F)Oc1ccc(NC(=S)NNc2ccnc3cc(Cl)ccc23)cc1 | inconclusive: 56.2 µM [inhibitor, partial curve, poor fit]
Oc1c(Br)cc(Br)cc1C=Nc1cccc2ncccc12 | inconclusive: 10 µM [inhibitor, partial curve]
CC(CCc1ccccc1)NS(=O)(=O)c1ccc(Cl)c(C(=O)O)c1 (stereo not given) | inconclusive: 11.2 µM [inhibitor, partial curve]
CC(C)Cn1c(CN2CCN(c3cccc(Cl)c3)CC2)nc2c1c(=O)[nH]c(=O)n2C | inconclusive: 15.8 µM [inhibitor, full curve, poor fit]
CCCc1n[nH]c(=S)n1Cc1ccco1 | active: 5.01 µM
O=C(NCCc1ccc(Cl)cc1)c1ccc2nc(CCc3ccccc3)oc2c1 | inactive
Cc1cccc2nc(-c3ccco3)c(Nc3ccc4c(c3)OCCO4)n12 | active: 56.2 µM
OC(CCN1CCOCC1)c1ccccc1 (stereo not given) | inactive
CCOC(=O)C1CCCN(Cc2cc(OC)c(O)c(OC)c2)C1 (stereo not given) | active: 2.24 µM
CCN(CC)c1ccc(NC(=S)NC(=O)c2cccs2)cc1 | active: 17.8 µM
CCCCNc1nc(CC(C)=O)ns1 | inactive
O=C1Nc2ccccc2C(O)(C(=O)N2CCCCC2)N1c1ccccc1 (stereo not given) | inconclusive: 89.1 µM [inhibitor, single point]
Cc1[nH]c(C)c(S(=O)(=O)NCCc2ccc(S(N)(=O)=O)cc2)c1C(=O)N1CCCC1 | inconclusive: 25.1 µM [inhibitor, full curve, poor fit]
COc1cc(/C=C2\SC(=Nc3ccccc3)N(Cc3ccco3)C2=O)ccc1OC(C)C(=O)O (stereo not given) | inconclusive: 56.2 µM [inhibitor, partial curve]

Compound | Potency
Cc1nc(NCCCn2ccnc2)c2ccccc2n1 | active: 89.1 µM
C=CCNC(=S)NNC(=O)C(CCC(C)C)CC(C)(C)O (stereo not given) | inactive
CCc1ccccc1NC(=O)CNC(=O)CCc1nc2sc3c(c2c(=O)[nH]1)CCCC3 | inconclusive: 25.1 µM [inhibitor, full curve]
CN(C)C(=O)c1cnc(Sc2ncc(C(F)(F)F)cc2Cl)n1C | inactive
Cc1ccc(Oc2ccc(N)cc2)cc1 | inconclusive: 79.4 µM [inhibitor, partial curve, poor fit]
COc1ccc(/C=N/Nc2nc(=O)[nH]nc2C)cc1OC | inconclusive: 1.26 µM [inhibitor, full curve, poor fit]
COc1ccc(N2CCN(c3ncccc3C#N)CC2)cc1 | inconclusive: 22.4 µM [inhibitor, full curve]
CC(C)C(=O)NNC(=O)C1CC1(c1ccccc1)c1ccccc1 (stereo not given) | inconclusive: 56.2 µM [inhibitor, partial curve]
CCOC(=O)N1CCC(Nc2c(NCCN3CCN(Cc4ccccc4)CC3)c(=O)c2=O)CC1 | inactive
Cc1cc2c(cc1C)N(C(=O)CCl)CCN2C(=O)CCl | active: 39.8 µM
Cc1ccc(-c2nnc(N3CCCCCC3)c3ccccc23)cc1 | inconclusive: 56.2 µM [inhibitor, partial curve]
COc1ccc(N2CCN(CC(=O)Nc3nc4c(s3)CC(C)CC4)CC2)cc1 (stereo not given) | active: 50.1 µM
CC(=O)c1ccc(NC(=O)CCn2cccn2)cc1 | inactive
CN(C)c1ccc(NC(=O)CSc2nc(C3CC3)nc3ccccc23)cc1 | inconclusive: 12.6 µM [inhibitor, partial curve]
Cc1ccc(OCCN2CCN(c3nc(NCc4ccco4)c4ccccc4n3)CC2)cc1 | active: 56.2 µM
Cc1cc2c(cc1C)CN(c1ccccc1)C2 | inconclusive: 63.1 µM [inhibitor, partial curve, poor fit]
COc1ccc(CNC(=O)C(CC(C)C)NS(=O)(=O)c2ccc3c(c2)oc(=O)n3C)cc1 (stereo not given) | inactive
COc1ccc(OCC(=O)NC(CC(=O)O)c2ccc(OC)c(OC)c2)cc1 (stereo not given) | inactive
COc1ccc(OC)c([C@@H]2Nc3ccc(C(=O)O)cc3[C@@H]3C=CC[C@@H]32)c1 | inconclusive: 79.4 µM [inhibitor, partial curve]
COc1ccc(C2=CC(c3c(C)nn(-c4ccccc4)c3Cl)n3nnnc3N2)cc1OC (stereo not given) | inconclusive: 50.1 µM [inhibitor, partial curve]
CCOc1ncccc1C(=O)Nc1ccc(Cl)cc1 | inconclusive: 39.8 µM [inhibitor, single point]
Cc1ccc(C)c(S(=O)(=O)c2nnn3c2nc(NC2CCCC2)c2sccc23)c1 | inactive
COc1cc2ncnc(N(C)Cc3cccs3)c2cc1-c1ccc2c(c1)OCO2 | inconclusive: 8.91 µM [inhibitor, full curve, poor fit]
Cc1ncc(CN2CCC(n3nccc3NC(=O)c3ccccc3)CC2)s1 | inactive
CCC(C(=O)O)N1C(=O)/C(=C/C(C)=C/c2ccccc2)SC1=S (stereo not given) | inconclusive: 22.4 µM [inhibitor, full curve, poor fit]

Compound | Potency
Cc1ccc2nsnc2c1S(=O)(=O)Nc1cccc2nsnc12 | inactive
COc1ccc(C(C(=O)NC2CCCC2)N(C(=O)c2ccco2)c2ccc(OC)c(OC)c2)cc1 (stereo not given) | inactive
O=C(O)c1cccc(-n2cccc2/C=C\[N+](=O)[O-])c1 | active: 22.4 µM
COc1ccc(-n2c(SCc3ccc([N+](=O)[O-])cc3)nnc2-c2ccc(C)cc2)cc1 | inconclusive: 14.1 µM [inhibitor, full curve]
CCOc1ccccc1Oc1ncnc2c1oc1ccccc12 | inactive
C=C(C)Cn1c(N2CCN(c3ccc(OC)cc3)CC2)nc2c1c(=O)n(C)c(=O)n2C | inconclusive: 31.6 µM [inhibitor, partial curve, poor fit]
Cc1cccc(NCc2ccccc2O)n1 | inactive
N#Cc1ccccc1-n1c(N)c(C(=O)N2CCCC2)sc1=S | active: 56.2 µM
CCOC(=O)c1cnc2ccc(OCC)cc2c1N1CCN(c2ccccc2)CC1 | inconclusive: 31.6 µM [inhibitor, partial curve]
O=C(COc1ccc2ccc(=O)oc2c1)NCCCN1CCCC1=O | inactive
CC(=O)Oc1cccc2c1C(=O)C1CC=CC(OC(C)=O)C1C2=O (stereo not given) | inconclusive: 39.8 µM [inhibitor, full curve]
COc1ccc(NC(=O)C2CC(=O)OC23CCOC(C)(C)C3)cc1 (stereo not given) | inactive
Cc1cccc(N2N=C(C(=O)O)CCC2=O)c1 | inactive
CCOc1ccc(N2C(=O)/C(=C\c3ccc(O)c(OC)c3)S(=O)(=O)C2c2cccc([N+](=O)[O-])c2)cc1 (stereo not given) | inconclusive: 11.2 µM [inhibitor, full curve]
CCCN(CCC)CCNc1c(N2CCN(C(=O)OCC)CC2)c(=O)c1=O | inactive
O=C(NCc1cccc(Cl)c1)C1CCCN(c2nn3cc(-c4ccc(F)cc4)nc3s2)C1 (stereo not given) | inactive
Cc1cc(/C=N/n2cnnc2)c(C)n1-c1ccc(OCc2ccc(F)cc2)cc1 | active: 56.2 µM
COc1ccc(-c2csc(NC3CCCCC3)n2)c(OC)c1 | inconclusive: 11.2 µM [inhibitor, full curve, poor fit]
COc1cccc(Oc2ccc(N)cc2)c1 | inconclusive: 56.2 µM [inhibitor, partial curve, poor fit]
C/C=C\C=C/C(=O)Nc1cccc(C2=NOC3(C2)C[C@H](C(N)=O)N(C(=O)c2ccc(OC)cc2)C3)c1 (stereo not given in full) | inconclusive: 70.8 µM [inhibitor, single point]
COCCNC(=S)N1CCC(c2nc(-c3ccc(N(C)C)cc3)no2)CC1 | inconclusive: 35.5 µM [inhibitor, single point]
CCC(C)c1ccc(NC(=S)NC2CCN(Cc3ccccc3)CC2)cc1 (stereo not given) | inconclusive: 31.6 µM [inhibitor, single point]
O=C(N/N=C1\C2CN3CCN(C2)CC1(c1ccccc1)C3)Nc1ccccc1 | inactive
Cc1cc(C(=O)CSc2nnc(Nc3ccccc3)s2)c(C)n1CC1CCCO1 (stereo not given) | inactive
Cc1ccc2occ(/C=N/NC(=O)[C@@H](N)Cc3ccccc3)c(=O)c2c1 | inactive
